From PubChem BioAssay AID1159614 (National Center for Advancing Translational Sciences (NCATS), 2016)
The campaign covered roughly 45,000 compounds. About 65 (0.1%) were called active. The call rests on the fitted dose curve; in most records, active means well fitted activation curve with a large enough effect; inconclusive means small, poorly fitted or top-dose-only effect; inactive means no such curve, though single readings can be large or run the other way. Some of the results follow.

Target: Galactocerebrosidase (Homo sapiens) (UniProt P54803)
Test: A Novel Cell-Based Assay to Identify Small Molecules for B -Galactocerebrosidase; further: 0% is about no effect; nearly all actives have a fitted effect of over 65% in size
Conditions: 145M-Twi-hGALC-G270D cells (Twitcher mouse brain line with human GALC G270D), HMU-beta-Gal fluorescence, 48 h; series mostly up to 57.5 µM; activation: at the top concentration
How it was run: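 Fluorescence readout: HMU-β-gal cleavage by mutant GALC (0.1 mM final, citrate/phosphate pH 5.2 with 1 mg/mL taurocholate), stopped with carbonate/bicarbonate plus Triton X-100. Cells: murine Twitcher 145M-Twi expressing human G270D GALC; qHTS for activators.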

UniProt P54803, sequence (P54803 whole entry, looked up): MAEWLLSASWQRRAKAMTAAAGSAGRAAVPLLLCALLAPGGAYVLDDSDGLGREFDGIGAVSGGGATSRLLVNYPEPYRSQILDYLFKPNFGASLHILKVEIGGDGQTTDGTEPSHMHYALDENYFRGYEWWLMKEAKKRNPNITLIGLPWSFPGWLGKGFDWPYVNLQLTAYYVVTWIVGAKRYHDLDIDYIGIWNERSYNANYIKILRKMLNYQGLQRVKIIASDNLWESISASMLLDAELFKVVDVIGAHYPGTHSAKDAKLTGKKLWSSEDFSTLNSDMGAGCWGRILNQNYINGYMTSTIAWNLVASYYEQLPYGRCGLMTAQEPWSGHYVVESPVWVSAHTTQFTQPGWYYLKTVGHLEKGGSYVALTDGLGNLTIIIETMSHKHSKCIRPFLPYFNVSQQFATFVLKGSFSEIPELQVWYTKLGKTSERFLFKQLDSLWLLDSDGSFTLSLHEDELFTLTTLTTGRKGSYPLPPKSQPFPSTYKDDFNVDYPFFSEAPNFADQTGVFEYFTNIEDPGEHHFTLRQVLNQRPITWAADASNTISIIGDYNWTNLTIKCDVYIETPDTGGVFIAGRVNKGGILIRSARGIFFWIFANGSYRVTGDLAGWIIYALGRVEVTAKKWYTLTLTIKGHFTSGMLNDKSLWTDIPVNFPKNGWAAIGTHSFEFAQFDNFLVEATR

activation, inactive:
Fc1cccc(-n2ncc3c2ncn2nc(Cc4ccccc4)nc32)c1 -0.655%
COc1ccc(NC(=O)CN(c2cc(C)cc(C)c2)S(=O)(=O)c2c(C)noc2C)cc1Cl -13.5%
Cc1ccc2nc3sc(C(=O)NCCCN(C)c4ccccc4)cc3cc2c1 -6.37%
Cc1ccc(CNC(=O)CN2C(=O)COc3ccc(S(=O)(=O)Nc4ccccc4)cc32)cc1 0.706%
CC(C)(C)OC(=O)N1CCC(c2nnc(SCc3cccc(Cl)c3)o2)CC1 11.9%
COc1ccc(-c2nc(SCC(=O)Nc3ccc4c(c3)OCCO4)c(-c3ccc(C)cc3)[nH]2)cc1OC -12.8%
Cc1ccccc1Nc1c(-c2ccc(N3CCOCC3)cc2)nc2ccccn12 -15.8%
CC(N=C(NC#N)Nc1ccncc1)C(C)(C)C (stereo unspecified) -13.8%
CC(C)NC(=O)c1nn(-c2ccccc2F)nc1CO -11.6%
COc1ccc(NC(=O)CSc2ccc3nc(-c4ccccc4)cn3n2)cc1OC -7.09%
Cc1ccc(C(=O)NC2=NC(c3ccc(C)cc3)CC(=O)N2)cc1 (stereo unspecified) -13.5%
CC(=O)OCC(=O)[C@@]1(OC(C)=O)[C@@H](C)C[C@H]2[C@@H]3C[C@H](F)C4=CC(=O)C=C[C@]4(C)[C@@]3(F)[C@@H](O)C[C@@]21C -6.44%
Cc1cc(C)cc(NC(=O)CSc2nc(-c3ccccc3)c3cc(F)ccc3n2)c1 -12.9%
Cc1ccc2c(c1)-c1ncc(C(=O)c3ccccc3O)cc1CO2 -1.77%
CCCCCOC(=O)CSc1ncnc2sc3c(c12)CCC(C)C3 (stereo unspecified) -20.7%
CC(=O)c1ccc(NC(=O)c2cc3sccc3n2Cc2ccc(F)cc2)cc1 -13.1%
Cc1cc(C)cc(NC(=O)c2cc(CN3CCCC3)on2)c1 -16.6%
CCCCOC(=O)CC(CC(=O)OCCCC)(OC(C)=O)C(=O)OCCCC -9.32%
O=C(Cn1nc(C(F)(F)F)c2c1CCCC2)Nc1ccc(Br)cc1 -11.1%
COc1cccc(CNC(=O)COc2cc(=O)n(C)c3ccccc23)c1 -10.3%
Cc1ccc(-n2nnnc2CNC(=O)c2cc(C(F)(F)F)cc(C(F)(F)F)c2)cc1C 6.94%
O=C(Nc1cccc(C(F)(F)F)c1)c1cc(CN2CCOCC2)on1 -13.3%
COc1ccc(-n2ncc3c(NC4CCCC4)ncnc32)cc1 -7.38%
COc1ccc(S(=O)(=O)Nc2ccc(-c3cn4c(C)csc4n3)cc2)cc1 -7.91%
COc1ccccc1S(=O)(=O)Cc1ccc(C(=O)NCc2ccc(Cl)cc2)o1 -9.14%
Cc1ccc(N2CCN(S(=O)(=O)c3cccc4ccccc34)CC2)cc1Cl -10.1%
COC(=O)c1ccc(NC(=O)CCn2cnnn2)cc1 -8.66%
CCOc1ccccc1CNCc1cccn1-c1nnc(N2CCN(c3ccccc3)CC2)s1 -35.9%
CCN(CCCNC(=O)c1nn(-c2ccc(OC)cc2)c(=O)c2c1c1ccccc1n2C)c1ccccc1 -2.53%
Cc1c(Cl)cccc1-n1ncc(C(=O)Nc2ccc(Br)cc2F)c1C1CCNCC1 -13.6%
CC(=O)c1c(C)oc2c1cc(NS(=O)(=O)c1ccc(Br)cc1)c1ccccc12 -11.2%
CCCCNC(=O)c1ccc2c(c1)ncn2-c1cc(OC)ccc1OC -6%
CCCNc1ccc(-c2nc(-c3ccccn3)no2)cc1[N+](=O)[O-] -8.81%
O=C(Nc1ccccc1F)c1ccc2c(Cl)c3c(nc2c1)CCC3 -13.8%
COC(=O)c1ccc(NC(=O)c2nc(-c3ccc(Cl)cc3)n3c2CCCCC3)cc1 -19.1%
CCc1cccc(NC(=O)CCNS(=O)(=O)c2cccc3nonc23)c1 -23.7%
COc1ccccc1NC(=O)C1=C(C)Nc2nnnn2C1c1ccc(C(F)(F)F)cc1 (stereo unspecified) -7.82%
COc1cc(NC(=O)N2c3ccccc3Sc3ccccc32)cc(OC)c1 -6%
O=C(CSc1nccn1-c1ccc(Cl)cc1)Nc1ccc(Cl)c(Cl)c1 -12.6%
CCOC(=O)N1CCc2c(sc3c2c(=O)n(CCc2ccccc2)c(=O)n3CC(=O)Nc2ccc(C)cc2)C1 -3.42%
CC(C)(C)CC(=O)NCC(c1ccc2c(c1)OCO2)N1CCN(c2ccccc2)CC1 (stereo unspecified) -6.54%
CC(=O)c1ccc(NC(=O)c2cc(-c3ccc(C)s3)nc3ccccc23)cc1 -8.33%
CCC(C)NC(=O)Cn1c(=O)n(CCCCCC(=O)NCc2ccccc2Cl)c(=O)c2sccc21 (stereo unspecified) 2.94%
O=C(NCc1cccc(Br)c1)c1cnn(-c2ccc(F)cc2)c1-n1cccc1 -43%
Cc1cccc(N2CCN(C(=O)CN3C(=O)CSc4c3c(C)nn4-c3ccccc3)CC2)c1C -4.73%
CN1CCc2c(sc(NC(=O)CSc3ccccc3)c2-c2nc3ccccc3s2)C1 -18.9%
CCCOC(=O)c1c(NC(=O)C(C)Sc2nc(-c3ccccc3)cc(C(F)(F)F)n2)sc(C(=O)N(C)C)c1C (stereo unspecified) -2.11%
COc1ccccc1C(=O)NCC(c1cccnc1)N1CCc2ccccc2C1 (stereo unspecified) -12.7%
CCOC(=O)c1ccc(NC(=O)CSc2ccc3ccccc3n2)cc1 -5.83%
CCCN(CCC)CCCNC(=O)c1cc2c(-c3ccc(OC)c(OC)c3)nn(C)c2s1 -1.21%
CCOc1ccc(N2CC(NC(=O)c3cccs3)CC2=O)cc1 (stereo unspecified) -9.62%
CN(C)CCNC(=O)C1CCN(Cc2cc3ccccc3n2Cc2ccccc2)CC1 -1.93%
CCOc1ccc(S(=O)(=O)c2c(C(=O)c3ccc(CC)cc3)cnc3ccc(C)cc23)cc1 -25.2%
CCc1ccc(NC(=O)[C@H](Cc2ccccc2)N2Cc3ccccc3C2=O)cc1 -20.3%
COc1cc(NC(=O)CCc2c(C)nn(-c3ccc4nnc(C)n4n3)c2C)cc(OC)c1OC -6.72%
Cc1ccc(S(=O)(=O)n2nc(-c3ccccc3)nc2NCc2ccc(Cl)cc2)cc1 5.23%
O=C(CSc1nc2c([nH]c3ccccc32)c(=O)n1-c1ccccc1)N1CCc2ccccc21 -0.413%
O=C1CC(c2nc(-c3ccc(Cl)cc3)no2)CN1c1ccc2c(c1)OCCO2 (stereo unspecified) -5.97%
CCC(=O)N1CCc2cc(S(=O)(=O)CCC(=O)N3CCN(c4ccc(Cl)cc4)CC3)ccc21 -10.1%
COc1ccc(NC(=O)c2c(NCc3sccc3C)sc3c2CCCC3)c(OC)c1 -11.6%
CCc1nn2c(=O)cc(COC(=O)CNC(=O)COc3ccc(C)cc3)nc2s1 8.61%
CCCn1c(=O)sc2cc(NC(=O)c3ccc(OC)c(Br)c3)ccc21 -1.45%
CCCOc1ccc(CN(C(=O)Cc2coc3ccc(CC)cc23)C2CCS(=O)(=O)C2)cc1 (stereo unspecified) -18.9%
CC(C)CC(NS(=O)(=O)c1ccc2c(c1)oc(=O)n2C)C(=O)NCc1ccccc1Cl (stereo unspecified) 1.66%
Cc1ccc(-n2nc(CO)c(C(=O)NC(C)CCCc3ccccc3)n2)cc1 (stereo unspecified) -7.84%
COc1ccc(Nc2nc(N)nc(N)c2S(=O)(=O)c2ccccc2)cc1 -14.2%
Cc1cn(C)c(CC(=O)N2CCN(c3cccc(Cl)c3)CC2)c1C(=O)O -10.4%
Cc1ccc(NC(=O)CN2CCN(S(=O)(=O)c3ccc(C(C)C)cc3)CC2)cc1F -22.5%
Cc1ccc(-n2cc(C(=O)Oc3cccc(C)c3)c3ccccc3c2=O)cc1 -19%
COc1cccc(NC(=O)CSC2=Nc3ccccc3C3=NC(CCC(=O)NCCc4ccccc4)C(=O)N23)c1 (stereo unspecified) -18.3%
Cc1cccc(NC(=O)c2ccc3nc(C(C)C)oc3c2)c1C -17.9%
CCCN(CCC)C(=O)Cn1c(=O)n(-c2ccc(CC)cc2)c(=O)c2ccc(C(=O)NCCc3ccccc3)cc21 -17.2%
CCOC(=O)c1ccc(Nc2nc3ccc(C(=O)c4ccccc4)cc3n3c(C)nnc23)cc1 -6.11%
O=c1c2ccccc2n(Cc2ccccc2Cl)c(=O)n1CCc1ccccc1 -0.145%
Nc1nc2c(ncn2CCC(CO)CO)c(=O)[nH]1 -12.1%
CC(C)(C)OC(=O)N1CCC(c2c(C(=O)NC3CCN(Cc4ccccc4)CC3)cnn2-c2ccc(F)cc2F)CC1 -8.97%
CCCOc1ccc(C(=O)OCCN(CC)CC)cc1N -14.7%
COc1ccc(CCNC(=O)c2ccc3c(c2)CCN3S(=O)(=O)c2ccc(C)cc2)cc1 -2.52%
COc1ccc(-c2cc(C(=O)NCCc3ccccc3)c3c(-c4ccccc4)[nH]nc3n2)cc1OC -4.44%
Cc1ccc(NC(=O)C2CCCN(S(=O)(=O)c3ccc4c(c3)oc(=O)n4C)C2)cc1Cl (stereo unspecified) -7.36%
CCOc1ccc(NC(=O)C(=O)c2cc(C)n(-c3cc(C)cc(C)c3)c2C)cc1 -12.3%
COc1cc(Cl)c(NC(=O)CCS(=O)(=O)c2ccc3c(c2)NC(=O)CO3)c(OC)c1 0.982%
CCCCCOc1ccc(Cn2c(=O)oc3ccccc32)cc1 -15.6%
CCOc1ccc(S(=O)(=O)Nc2cccc(-c3ccc(OCC)nn3)c2)cc1 -15.2%
Cc1ccc(/C=C/c2onc(C)c2S(=O)(=O)N2CCC(C(=O)Nc3cc(C)ccc3C)CC2)cc1 -3.15%
COc1ccccc1CCNC(=O)C(=O)NCC(c1cccs1)S(=O)(=O)c1cccs1 (stereo unspecified) -3.02%
O=C(Nc1ccc(S(=O)(=O)N2CCCCC2c2cccnc2)cc1)c1ccc(Br)cc1 (stereo unspecified) -13.9%
Cc1cccc(NC(=O)COC(=O)CCCC2=NS(=O)(=O)c3ccccc3N2)c1 -11.2%
O=C(Nc1ccc(F)cc1C(F)(F)F)C1CCN(c2ncccn2)CC1 -7.07%
COc1ccc(S(=O)(=O)c2cn(C)c3ccc(C)cc3c2=O)cc1 15.1%
Cc1cc(C)c2oc(C(=O)Nc3ccc(S(=O)(=O)N4CCCCCC4)cc3)cc(=O)c2c1 0.235%
Cc1cccc(NC(=O)c2c(C)cc(C)nc2SCC(=O)c2ccccc2)c1 -18.9%
CC(C)c1ccc(NC(=O)c2ccc(F)c(S(=O)(=O)N3CCc4ccccc43)c2)cc1 -4.63%
COc1ccccc1NC(=O)c1sc2nc(C)c(C(=O)Nc3ccc(C)cc3C)c(-c3ccco3)c2c1N -24.3%
CCC(C)NC(=O)CSc1nc2n[nH]c(C)c2c(=N)n1-c1cc(Cl)ccc1C (stereo unspecified) -3.7%
O=C(C1CCCN(S(=O)(=O)c2cccc3nsnc23)C1)N1CCN(c2ccccc2F)CC1 (stereo unspecified) -8.07%
